Measured values reported in the supplement of paper PMC10338343.
± gives the standard deviation. The list shows a part of the results, in another mix than the full data.

Tested on: MIWI (PIWIL1) piRISC loaded with L1MC piRNA (30 nt)
Test: pre-steady-state target cleavage rate (min^-1); MIWI and MILI are mouse PIWI proteins and EfPiwi is from a freshwater sponge; tags in brackets are library labels; higher = faster piRNA-guided slicing of the target
Conditions: guide: L1MC piRNA 5'p-UAACUAAAUACUAUGCAAGCUGUAGGUCCU; auxiliary factor: 500 nM mouse GTSF1
Method: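 Cleave-'n-Seq: a library of target RNAs (target site embedded in constant flanks, ACAGCATTCCGCGTTAGTGATATCCG... 5' flank; DNA-blocked outside the site) at 0.1 nM was incubated with 1 nM active mouse MILI or MIWI piRISC (synthetic 5'-monophosphorylated piRNA guide) with or without 500 nM mouse GTSF1 at 33 °C for 1 min to 16 h. Uncleaved targets were sequenced and normalised to non-target controls, and the pooled three trials were fitted to a burst-and-steady-state model to give the pre-steady-state cleavage rate (min^-1; k3 is constrained to at most 1e-4). Sequence is the target site only; target names encode pairing extent (gX:gY) and contiguous / 1-mismatch / 2-mismatch / bulge geometry. Fits with R² ≤ 0 are excluded.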

Sequence	pre-steady-state target cleavage rate
UCCUGGAUCAGCUUGCAUUGUAUAUAGUUA	0.164 ± 0.015
AGGUGGUACAGCUUGCAUAGUAUUUAGUUA	1.36 ± 0.057
UCGACCUACAGCUUGCAUAGUAUAUUAGUUA	1.25 ± 0.049
UCCACCUACAGCUUGCAUAGUAUUAAGUUA	0.648 ± 0.051
UCCUGCUACAGCUUGCAUUGUAUUUACUUA	0.329 ± 0.047
UCCUCCUACAGCAAGCAUAGUAUUUUCAAA	0.187 ± 0.041
UCCACCUACAGCUUGCAUAGUAUUUAGAUUA	0.312 ± 0.039
AGGAGCUACAGCUUGCAUAGAAUUUAGUUA	0.502 ± 0.02
UCCUGGAAAGCUUGCAUAGUAUUUAGUUA	0.971 ± 0.052
UCCUCCUACAGCUUGCAUAGUAUUAACUUA	0.24 ± 0.036
UCCUGGAACAGCUUGGAUAGUAUUUAGUAA	0.611 ± 0.064
AGGACCUACAGCUACGAUAGUAUUUAGUAA	0.153 ± 0.045
UCCAGGAACAGCUUGCAUAGUAUUUUCAAA	0.232 ± 0.035
UCCUCCUACAGUUUGCAUAGUAUUUAGUUA	1.15 ± 0.039
UCCUGGAUGAGCUUGUAUAGUAUUUAGUUA	0.931 ± 0.036
UGCUGCUACAGCUUGCAUAGUAUUUAGAAA	0.255 ± 0.035
UCCUCGUACAGCUUGCAUAGUAUUUUCAAA	0.277 ± 0.034
UCCUGGAACUCGUUGCAUAGUAUUUAGUAA	0.071 ± 0.011
AGGACCUACUGGUUGCAUAGUAUUUAGUUA	0.868 ± 0.03
UGGACCAACAGCUUGCAUAGAAUUUAGUUA	0.357 ± 0.021
UCCUGGUACAGGUUGCAUAGUAUUUAGAAA	0.141 ± 0.025
AGCACCUACAGCUUGCUUAGUAUUUAGUUA	0.978 ± 0.079

Same assay, conditions: guide: L1MC piRNA 5'p-UAACUAAAUACUAUGCAAGCUGUAGGUCCU; auxiliary factor: none (no GTSF1)

Sequence	pre-steady-state target cleavage rate
UCCUGGAUCAGCUUGCAUUGUAUAUAGUUA	0.0141 ± 0.0053
AGGUGGUACAGCUUGCAUAGUAUUUAGUUA	0.0811 ± 0.015
UCGACCUACAGCUUGCAUAGUAUAUUAGUUA	0.0248 ± 0.0063
UCCACCUACAGCUUGCAUAGUAUUAAGUUA	0.0198 ± 0.0046
UCCUGCUACAGCUUGCAUUGUAUUUACUUA	0.0149 ± 0.0046
UCCACCUACAGCUUGCAUAGUAUUUAGAUUA	0.0172 ± 0.0039
AGGAGCUACAGCUUGCAUAGAAUUUAGUUA	0.0288 ± 0.0086
UCCUGGAAAGCUUGCAUAGUAUUUAGUUA	0.059 ± 0.016
UCCUCCUACAGCUUGCAUAGUAUUAACUUA	0.0062 ± 0.0024
UCCUGGAACAGCUUGGAUAGUAUUUAGUAA	0.0288 ± 0.0068
UCCAGGAACAGCUUGCAUAGUAUUUUCAAA	0.00318 ± 0.0021
UCCUCCUACAGUUUGCAUAGUAUUUAGUUA	0.0529 ± 0.0094
UCCUGGAUGAGCUUGUAUAGUAUUUAGUUA	0.0448 ± 0.01
UGCUGCUACAGCUUGCAUAGUAUUUAGAAA	0.00391 ± 0.002
UCCUGGAACUCGUUGCAUAGUAUUUAGUAA	0.00318 ± 0.0021
AGGACCUACUGGUUGCAUAGUAUUUAGUUA	0.059 ± 0.0095
UGGACCAACAGCUUGCAUAGAAUUUAGUUA	0.0276 ± 0.0072
AGCACCUACAGCUUGCUUAGUAUUUAGUUA	0.0389 ± 0.0089
